# Hit rate of the full screen: of about 310,000 compounds, about 14,000 (4.5%) showed an effect of 50% or more. The effect is printed as a negative number. This is one part of the list.
# Biological target: human ether-à-go-go-related gene (hERG) potassium channel (human, UniProt Q12809)
# Assay: primary screen, population patch clamp on CHO cells stably expressing hERG
# 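Further: peak tail current of the secondary pulse compared with the same well before compound.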
# human ether-à-go-go-related gene (hERG) potassium channel, sequence (Q12809 whole entry, looked up): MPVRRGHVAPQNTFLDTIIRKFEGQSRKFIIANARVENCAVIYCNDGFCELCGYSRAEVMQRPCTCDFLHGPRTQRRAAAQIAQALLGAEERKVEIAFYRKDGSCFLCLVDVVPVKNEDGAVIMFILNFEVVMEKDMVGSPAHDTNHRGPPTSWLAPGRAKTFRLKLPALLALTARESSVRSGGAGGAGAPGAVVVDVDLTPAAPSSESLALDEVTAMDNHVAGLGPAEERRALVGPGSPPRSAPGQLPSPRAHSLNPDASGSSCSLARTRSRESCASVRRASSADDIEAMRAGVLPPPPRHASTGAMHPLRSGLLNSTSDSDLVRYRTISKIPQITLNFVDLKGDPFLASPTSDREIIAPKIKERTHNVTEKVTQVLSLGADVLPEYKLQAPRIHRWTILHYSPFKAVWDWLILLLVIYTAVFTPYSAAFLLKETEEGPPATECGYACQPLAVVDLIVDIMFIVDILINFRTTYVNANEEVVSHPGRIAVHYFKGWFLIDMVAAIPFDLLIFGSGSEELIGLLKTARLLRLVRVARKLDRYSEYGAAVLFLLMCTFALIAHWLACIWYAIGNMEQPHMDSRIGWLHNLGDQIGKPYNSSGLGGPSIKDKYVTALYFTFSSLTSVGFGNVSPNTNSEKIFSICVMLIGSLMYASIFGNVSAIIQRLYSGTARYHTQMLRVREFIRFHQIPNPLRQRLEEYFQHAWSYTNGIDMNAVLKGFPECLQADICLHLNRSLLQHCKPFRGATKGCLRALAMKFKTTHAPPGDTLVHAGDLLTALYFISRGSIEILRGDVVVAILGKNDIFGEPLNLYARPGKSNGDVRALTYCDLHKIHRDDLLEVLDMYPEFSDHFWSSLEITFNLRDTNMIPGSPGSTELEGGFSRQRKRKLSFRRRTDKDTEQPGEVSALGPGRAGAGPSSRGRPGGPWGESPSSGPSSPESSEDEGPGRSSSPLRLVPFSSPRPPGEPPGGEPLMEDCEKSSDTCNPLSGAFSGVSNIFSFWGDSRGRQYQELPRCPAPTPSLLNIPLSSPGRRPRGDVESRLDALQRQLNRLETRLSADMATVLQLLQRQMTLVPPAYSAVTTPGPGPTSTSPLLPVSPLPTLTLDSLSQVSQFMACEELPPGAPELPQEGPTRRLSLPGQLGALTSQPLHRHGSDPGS
row,Structure (SMILES),"hERG current change (%, negative = inhibition) at 10uM [%]"
1,O=[N+]([O-])c1ccc(NCCCNS(=O)(=O)c2ccccc2)c(Cl)c1,-14.3
2,Nc1nc(CSCc2ccccc2)nc(N2CCOCC2)n1,-10.2
3,O=C(Nc1ccccc1Cl)C1CC(=O)n2c(nc3ccccc32)N1 (stereo not shown),24.7
4,O=C(c1cc(C(=O)NCc2ccc(Cl)cc2)c(=O)n(Cc2ccc(Cl)cc2)c1)c1cc(F)ccc1O,9.94
5,COc1ccc(C2C3=C(CCCC3=O)Nc3n[nH]c(C)c32)cc1OC (stereo not shown),6.62
6,O=C(NCc1cccs1)C1(S(=O)(=O)c2ccccc2)CC=CC1,-3.22
7,Cc1cccc(OCc2ccc(C(=O)Nc3ccc(F)cc3)cc2)c1,11.6
8,CCOCCCNC(=S)NCCCNc1nc2cc3c(cc2cc1C#N)OCO3,-1.68
9,COCCNC(=O)c1cn(CCOC)c(=O)c2c1c1ccccc1n2C,11.7
10,C=CCOc1ccc(CN(C)C(=O)c2ccc(CNS(=O)(=O)c3ccc(C)c(C)c3)cc2)cc1,-2.09
11,Cc1c(C(=O)OCC(=O)N2C(C)CCCC2C)oc2ccccc12 (stereo not shown),19.6
12,Cc1ccc(-c2csc3ncnc(Nc4ccc(N5CCOCC5)cc4)c23)cc1.Cl,-0.406
13,Cc1ccc(Cn2c(=S)[nH]c3ccc(N4CCOCC4)cc3c2=O)o1,-41.5
14,O=C(CCn1c(=O)oc2ccccc21)NCc1ccc2c(c1)OCO2,-11
15,CCOc1cc(C(=O)O)cc(Cl)c1OC,16.3
16,CC(=O)Nc1ccc(C(=O)N2CCN(C(=O)c3ccco3)CC2)cc1,-1.06
17,O=c1c2ccc(Cl)cc2[nH]c(=S)n1CCC1=CCCCC1,14.6
18,Cc1ccc(S(=O)(=O)N2CCCC(C(=O)NCc3ccccn3)C2)cc1 (stereo not shown),-4.25
19,Cc1ccc(-c2nc(SCC(=O)NCC3CCCO3)c(-c3ccc(C)cc3)[nH]2)cc1 (stereo not shown),29.2
20,O=C(C1=C(O)C(=O)N(CCN2CCOCC2)C1c1cccnc1)c1cc2ccccc2o1 (stereo not shown),-5.17
21,CC1(C)CC(NC(=O)COc2ccccc2Cl)CC(C)(C)N1,10.8
22,CC(=O)c1ccc(Cc2ccccc2)cc1,-3.54
23,COc1ccc(OC)c(NC(=O)CC2Oc3ccccc3NC2=O)c1 (stereo not shown),19.4
24,Cc1nnsc1C(=O)NNC(=O)c1ccc(C(F)(F)F)cc1,19.1
25,COC(=O)c1c(C)[nH]c(C(=O)C(C)OC(=O)c2ccco2)c1C (stereo not shown),11.7
26,Cc1cccc(-c2nc(C)cc(=O)[nH]2)c1,14.5
27,O=C1c2ccccc2NC(c2c(Cl)cccc2Cl)N1Cc1ccccc1 (stereo not shown),7.98
28,CC(=O)Oc1ccc2oc(=O)c3c(c2c1)CCCN3C(=O)CN1CCN(c2ncccn2)CC1,-7.91

row,Structure (SMILES),"hERG current change (%, negative = inhibition) at 10uM [%]"
1,CCCCN1C(=O)c2ccc(C(=O)OCC(=O)N3CCN(c4ccccc4)CC3)cc2C1=O,-2.39
2,CN(C)/C=C/C(=O)c1ccc(S(=O)c2ccccc2)cc1 (stereo not shown),33.4
3,COc1cc(OC)c(/C=C2\SC(=O)N(CC(=O)Nc3ccccc3F)C2=O)c(OC)c1,13.8
4,COC(=O)c1nnn(-c2nonc2N)c1CSc1ccccn1,-3.45
5,Cn1c(=O)c(C(=O)COC(=O)c2cc(C(F)(F)F)nc3c(C(F)(F)F)cccc23)c(N)n(CC2CC2)c1=O,-13.2
6,CCOC(=O)c1nnn(-c2nc(OC)nc(N3CCCC3)n2)c1-c1ccccc1,12.3
7,CC(C)n1cnc2c(N(C)c3ccccc3)nc(N(CCN(C)C)Cc3ccccc3)nc21,-73.1
8,CC(=O)c1cccc(S(=O)(=O)Nc2cccc(S(=O)(=O)NC3=NCCC3)c2)c1,11.2
9,CC1Cc2ccccc2N1C(=O)COc1cccc(-n2cnnn2)c1 (stereo not shown),-27
10,COc1cccc(CNC(=O)CCC2CCCN(C(=O)c3csc(C(C)C)n3)C2)c1 (stereo not shown),-2.21
11,O=C(Nc1nnc(COc2ccc(Cl)cc2)s1)C1CCCO1 (stereo not shown),-11
12,Cc1ccc(N(C(=O)c2csnn2)C(C(=O)NC2CCCC2)c2ccccn2)cc1 (stereo not shown),9.02
13,Cc1cccc(N)c1SC1CCCCC1O (stereo not shown),-5.84
14,Cc1nn(C)c(C)c1S(=O)(=O)N1CCCC(C(=O)NC2CCCCCC2)C1 (stereo not shown),5.43
15,O=C(/C=C/c1ccc2c(c1)OCO2)N1CCOCC1,-6.03
16,CCC(=O)Nc1cccc(-c2nc3ccccc3o2)c1,-4
17,COc1ccc(CC(=O)Nc2ccc(S(=O)(=O)Nc3cc(C)on3)cc2)cc1OC,21.6
18,CC1CC(C)CN(CCCn2c(=S)[nH]c3ccccc3c2=O)C1 (stereo not shown),-53
19,CC[C@H](C)[C@@H](CN[C@H](CCCCNC)CNC)NCC1CCCC1,29.8
20,COc1ccc(S(=O)(=O)Nc2ccc(N3CCOCC3)cc2)cc1,7.57
21,CCCc1cc(=O)oc2cc(OCC(=O)NCC3CCC(C(=O)O)CC3)ccc12 (stereo not shown),-16.1
22,O=C(NC1CC1)C1=C[C@@H](c2csc3ccccc23)C[C@@H](OCc2ccc(CO)cc2)O1,-9.44
23,Cc1c(Cc2ccccc2)sc(NC(=O)/C=C/c2cccc3ccccc23)c1C(N)=O,20
24,Cc1ccc(CNC(=O)c2cc3c(s2)CN(Cc2ccccc2)C3)cc1.Cl,3.85
25,CC(NC(=O)c1cccc(S(=O)(=O)N2CCN(Cc3ccccc3)CC2)c1)c1ccc(Br)cc1 (stereo not shown),-17.6
26,O=C1CSCC(=O)N1Cc1ccc(Cl)cc1Cl,13.5
27,CCCN1C(=O)c2ccccc2NC1c1ccc(OC)c(CSc2ccccn2)c1 (stereo not shown),-2.44
